# In PMC10726135:
# The other results are listed elsewhere or left out. At the low end of the ranking the order means little. The protein was read in a cell extract, so binding may be indirect.
# Molecular target: T1, HNF4alpha2 (COS-7 nuclear extract) (UniProt P41235)
# T1 sequence: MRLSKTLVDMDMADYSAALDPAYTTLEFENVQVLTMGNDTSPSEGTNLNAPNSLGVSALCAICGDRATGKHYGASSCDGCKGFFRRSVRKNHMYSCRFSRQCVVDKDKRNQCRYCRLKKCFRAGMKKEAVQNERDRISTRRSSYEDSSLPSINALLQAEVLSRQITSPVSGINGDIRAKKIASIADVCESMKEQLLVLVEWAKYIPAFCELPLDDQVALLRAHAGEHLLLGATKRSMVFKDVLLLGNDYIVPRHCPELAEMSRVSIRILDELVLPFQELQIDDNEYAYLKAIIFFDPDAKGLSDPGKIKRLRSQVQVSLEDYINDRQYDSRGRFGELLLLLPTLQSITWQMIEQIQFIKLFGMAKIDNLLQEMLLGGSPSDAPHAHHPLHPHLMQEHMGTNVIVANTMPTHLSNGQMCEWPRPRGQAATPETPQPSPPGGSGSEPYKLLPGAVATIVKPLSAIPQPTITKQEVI
# Assay: protein-binding microarray
# Conditions: COS-7 nuclear extract on double-stranded Agilent 4x180k PBM; binding buffer, salt, pH and temperature not given; high values mean tight binding; double strand, one strand shown; sequences stand for … in …GCCTAGGGAGATTAGAGTATCGGTCGA
row,Sequence,binding signal (log2 normalized intensity)
1,CCCCCTTCATCTGGGACGTGGCTCAAGATT,1.67
2,TTTTTCCTGGATGCCAGGCAAGAGCTCAGA,-0.982
3,CAACCTCTCCAATGCTATGCTTTTATTTAA,0.371
4,CATCCTGGCGACAGCAACTAGCAACTTGGA,-1.02
5,CTTATAGCTCAACCCCCAAAACTGCCTGAT,3.05
6,TTGGAATGCCCTTATCTCATACCTTGCATG,0.672
7,CAACAAAGCATTATCTACACAGTAAGGTGC,-1.19
8,ATCTCCACAAACATACAACCATCAAAGGTC,2.59
9,TCTTTCAGAAACAAAGGGGGAGGGAGATAG,-1.16
10,CCGCCCGACTACAACAGCCTTGCAGATAAG,-1.22
11,GTTATCTAAATTAGATATGGCTTATACTTG,-1.05
12,AAGATAAGCAGCATTCCACCAAATCTTACC,-1.2
13,GATGTGTGTATCAATGGCCCCAGTGCACGT,2.11
14,CCTTGCTCAACTCCCTCTGAAGGGAGGGCC,-1.06
15,GTGGTTGCTCGGAACACGAGGTGAGAGGCG,0.0472
16,ACGAGCAAGTTTATTCCAAGACTCGCGATA,-1.06
17,TTTCCTGTGACTTTTGGCCAGAGTAAGGCG,1.74
18,GGCAGGGAAAGGGGGTTTGCAACCTTTGAT,2.94
19,CAAAAGTTCAAAGATATGATGGCCAGTTCA,1.19
20,ACAGAGGTCAAAGAGCAATCATCAAGGTGG,3.36
21,GGGAAAGGGATAAGATTAGGTGCTGAGCAA,-1.03
22,AGCAGCTGTTTGACCAAAGCTACTCATCAT,-1.04
23,CAAACAGGTCAAGCAATGCTGGGGACCTTT,2.99
24,GTATAACCTGGAACTGAAAGAGACCTTTGA,5.31
25,CACCTACATTCAGGACACTTCTGAAAAAAA,-1.08

row,Sequence,binding signal (log2 normalized intensity)
1,GGAGTTGCTTGTGTTGGAGCATTAGTTGAC,1.22
2,TAGGCATTGAGGCAGCCAGCGCAGGGGCTT,-1.15
3,CAACCAGAGGTCACTTTTATCACCATCTTG,0.215
4,CCCAAGGGATAGGCAGGAGTTAACTAACAA,-1.12
5,GGAAGACAGTCTTGGGCACAAAGTACAAAA,2.18
6,CTGGGGGCTGGGCGCGGGATCCTCTTTCCT,-0.94
7,TAAGAAAGGCTACAAAGGTGACTTGCCCAG,-0.598
8,CAGACTAAACTCACAATGGGGCATGACTTG,-0.203
9,CTGACAGACTGCCATTCCAGAAGTAGGATG,-1.14
10,TTGCACAGTATTTGGTGAGGCCCCAGTGTC,1.59
11,GGGCCGGCTCAGGAGAAGGGCCCATGGGCT,-1.19
12,TCTGCTTAAAGGCAAAGTCCAGAACCTGGA,3.15
13,CCTGAAGGCTGAGCCTAGGAGTTCAATGCT,-1.14
14,CATTCTTATCACAGAGCATCTGGTGGAACT,1.08
15,ATAACACACAGGCTCAACGGGTTAGACGCA,-1.13
16,GACAGGCTAATGAGATAATGCTGGTAAAGC,-0.891
17,CCAGGGGAAACTCCATTTCCTTCTAGCTCC,-1.06
18,CCAAACCAGTTCAACAAGAATTCCCCACTC,-0.326
19,ATCAGCAATGAACAAAGGTCGGTGGTATGT,2.74
20,TAACCATTCTTTCTGAGAAAAGCTGATGAC,-0.831
21,TCCCAGAGCATACATGCAGCTGAGAAAGAG,-1.19
22,AAACTCAGAGTCAAATCCCCTAGGTGATTA,-0.81
23,GAGCAAGAAACAGCAAATGCTTTTATTACC,-1.21
24,TAAAACAAACTCATTTTGATCTTTGTGTAC,2.61
25,AGGGGTGGGGACCTTTGGGCTCTGACCCGA,2.46

row,Sequence,binding signal (log2 normalized intensity)
1,AGTATCTATAGTTATTGCATGCAAGAGTTC,1.34
2,AGGAATTCTGATCTTTGACCTCTCCAGGGT,5.99
3,ACATTTAACTTAACCACTCAATCAGTACTG,-0.895
4,CAGGGCACATGTACACAGGAATATCAACAG,-1.06
5,ACAGCATTAGAGCAACCAGAATGTTCAAAA,-1.06
6,CAAAGGACAGGCTGACTATCACTGGGAGAT,-0.988
7,TAGGCTATCAGACAGCCACACTTTAATGTG,-1.09
8,AGCTAGTGCTAAAGGTCATATCCAAAATAT,3.97
9,GGAGACTTCAAACGGGAAGCGAGGCCTCAT,-1.16
10,GATCCTTATCAGTGTGAGCTACAAGTGAAT,-0.0021
11,GATCTTTGTTAGACCCTTATCAGTAGTTCT,1.47
12,TGTAACTAACAACTGACCTTGCAGGCCAGG,-0.838
13,CTGAGAGATTTTTTCTTCCACCTCCCTCCA,2.16
14,GGCTTGTGTTTAACCTTTGGGTGTGTTCAG,2.96
15,GGCCCTGCAGGGCCCCACATTTCAGGAATG,0.881
16,GAGCTGAGGAATTTCACCCAGGTATGACAA,-1.18
17,CCAGATAAACAGAAGAAAGGGGCTAGGGCA,-1.24
18,TATGCATTTGTCTCAGGTGGGCAGAGGCCT,-0.0135
19,CCTAACTATGGTTGATAAGGAAGTCCATGA,0.878
20,AAAGGTCAGGGATAGAACTGGTCCTGTGGG,-0.0244
21,CTAGCTGAGTGAGTAGGTTCTCAGCTGACA,-1.08
22,CCTTAGCTCTAGACATCGACCTTTGTGGGC,3.95
23,CAGTTTGAAAAACACTGGATAAAGTCCATA,2.02
24,GGCAGGGTTGGCTGTGGCAATTCCTTAAAA,-0.551
25,AGGCAGAGACTGCCCTGAGCCGCCAGGCGG,-1.16

row,Sequence,binding signal (log2 normalized intensity)
1,TAATAGCCAGAACTCAGGGTCTGGTTCCAA,-1.08
2,GGCAGGTTGCCCTTTCGGTGGGACTAAATT,1.46
3,CTGATAAAGGAAGGAATTTACTGCAGTCAG,-0.833
4,GTAAGTTAAGTAACTCTCCAAATTCCAGGA,-1.1
5,GTCACGTTCCAGCTGCTTCAGGAGCCCCCT,3.72
6,CCACTGGTGTAAGCTCTGGAGTCCAAAGGT,3.79
7,TGGATTAGTCCCTTTTCACGCTAAGAAGGA,-1.19
8,AGGAGGATCAGGTTTCACTGTTTTGGACAT,1.78
9,TAACTTAACCACTCAATCAGTACTGAAACA,-0.548
10,GCCCCAGCTCGCTCAGCTGGTTGCCCCTTT,4.14
11,AGAGCATCTTGGACTTGGGACTCTGCAGAC,4.76
12,TAAATCATGGGGAGCATCTATTTTCTATTT,-1.12
13,CTGACATGCTGTCACTTCTGCTGCATTCTA,-0.802
14,CCCTTATCTTTTTAGCAACTGGTATGTTAG,2.33
15,ACCTACCCTTTGCCCTGGACATATTTGTCT,2.03
16,GTTCCTGAGATAAAAAGAAGCTTGGTATGT,1.31
17,ATGTGGGGCGTGTGTTAGACTTTGGACCTG,8.86
18,TGGACTAAGAGTAGCGGTTTCTGCTTGGTT,1.09
19,AACATGAAACAGTCACAGTTATCAGACAGA,-1.11
20,GACCTGCGTAGCCCAAAGGTCAGTCTGCAG,3.21
21,TGAGATAGGTACTATTATTAGAGTCCCTTT,1.01
22,GGCTGTAGCAACCAAGTACCGCAAACAAGG,-1.1
23,GTCATGTCTCATTGCCCCTTGAGCTAAATA,3.22
24,TGTTCTTGGGGCCCACAGAGTCCAGAGGTC,5.61
25,AAAGGTTAGCTTGGACAGAGTTTGTGGTGT,2.23

row,Sequence,binding signal (log2 normalized intensity)
1,CCCCAGCATTTTGCAGACCTTGGTCAAAGT,2.3
2,TGGACAGTGTAAGATAAAAATCAGAGATCA,0.35
3,TTGTTTCCTCAGGGAGGAAGGCAACCACAG,-0.909
4,ACTTCTTTGTGATGTGTGGATTCAGCTCAC,1.29
5,GTTCAGGAGTTGTCTGTCCAGTTCAGGAGT,1.37
6,CCTTCAGGGGCATTTGAGTACATGCCTCTC,0.337
7,AAGATGGCTCTCCCGGGGCGGGGGTGACCA,-0.629
8,TGAGCTCTGGGGTCCTCTGCTGCCCTCTAG,2.05
9,ACTTCAGGATTCTTTATCTTAGCTTCAGCT,-1.16
10,AAAGCAAAGTCCAACACAGAAGCCTTTTGT,1.51
11,CCACAAAAGCCAACAGTACAGCCTTTGATC,1.83
12,CCTTTGACCTTCGGCTTCCCCAGAGAAAGA,3.03
13,TTTTATCACCACATCTCCCACTGTGGACTC,3.51
14,AGGGAAAGTGGGGGGAAAGAATAACGTTAC,-1.06
15,GGGAGACCAGGAAAGTGAATATCTGGCAAA,-1.15
16,AAAAGGCTAGAGCGCGCTGGAATCTTGATA,-1.2
17,ACTTCTGAGTTTTATCAGCTTCCCTGAGAT,1.12
18,AGATTCTTTCTTCCTTTTGAAAAAGTGAGT,0.753
19,TTTAAGATTCCAGCTCTCGGATCCTCTGGG,-1.22
20,GCAAGTAATTAAACATTTATTGAGCAGGTT,0.444
21,ATCTTGGAACAGGTCTCAGGAGTCCAGGGG,-0.518
22,TATGTCATAATGTACTCCACTGTGCAGTGG,0.38
23,ATCATAGTGTTTCTTCTGGTTCTGCAAGGC,1.26
24,TCAGGCAAACAACAGGCATCAACTCTATCA,-1.15
25,GCCAAAAGTCTCAGAAGCTGGGAGACCACT,-1.26

row,Sequence,binding signal (log2 normalized intensity)
1,ATAAGGTGAACATACGTGGCTACCTGTGCA,-0.872
2,CTGCTTAAACCTTTCAAGGGATTCCTATCG,-0.991
3,CAAGGGTGGATATTGGGAGGCCCATTGTGC,0.557
4,CAGTCTAGAATCTGCAGCCCCTTTTGGAAT,2.02
5,GCACACCTGGATCTTCCAGGCCTCCAGCTC,-1.14
6,AAGCAGGAGCATGGGGGATGGGGCCTGGGA,-1.1
7,ACAGCGTTTTCCCATTCATGACATTGATTT,1.66
8,AGTCTTTATTGGTACGTTCCAATATTCTGG,1.61
9,CTTTTTTTCCCCCTCACTGAATATGTTCGG,2.31
10,TTCACATAGCCACCAGGGCCTCTGAGATAA,-0.994
11,GACACTTTGAGAGAGGGACATGCTTGGCCT,-1.11
12,GAGACTGCCCTGAGCCGCCAGGCGGGTTCT,-1.05
13,CCAGCCCTTCACCAGAGCCGTCTGGTAAAT,-1.13
14,GTGAAATGGGGGAAGGGCTGGAGACGCAGG,-1.12
15,GGCCTGGGGGGAGACAACTGCAACAGGAGG,-1.14
16,CTTTATCCTACAAGGGAGATAAACTTTATC,0.268
17,GTTCACTGGGGAGACTCTCTCTCCTCTCCA,-1.08
18,GCCTAAGCAGGGCTAGACTTTAACCCCCTT,5.53
19,GTCCGAAGGTCAGCTGACCAACAGAGAAGG,1.61
20,CCCTTTGCTGATTACCTCAACTCCCACATC,1.81
